Results: the supplement of paper PMC7125110
± gives the standard error. Variants at the background level are over-represented here.

B1: glmS ribozyme (parent)
chain: AUAAAAGCGCCAGAACUACAGAAAUGUAGUUGACGAGGAGGAGGUUUAUCGAAUUUUCGGCGGAUGCCUCCAAA

What was measured:
Settings in all cases: with glucosamine-6-phosphate
glucosamine-6-phosphate [1] = variants of: B1; assay: self-cleavage kobs at 40 uM GlcN6P; higher = faster cleavage; RNA array
Procedure, shortened: (§1)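 Barcoded glmS ribozyme variants on sequenced MiSeq chips were transcribed in situ by E. coli RNA polymerase and tracked through a hybridised Cy3 probe at 37 °C. Glucosamine-6-phosphate (40 μM to 10 mM) in HEPES/KCl/Mg(OAc)2 buffer was flowed in, and tiles were imaged over ~14 h. Signals were normalised to baseline and to non-cleaving reference variants; per-tile medians were fit to one- or two-exponential decays to give kobs. kcat and KM came from weighted Michaelis–Menten fits across concentrations.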

glucosamine-6-phosphate [2] = variants of: B1; assay: self-cleavage kobs at 640 uM GlcN6P; higher = faster cleavage; RNA array
Procedure, shortened: as §1

glucosamine-6-phosphate [3] = variants of: B1; assay: self-cleavage kobs at 160 uM GlcN6P; higher = faster cleavage; RNA array
Procedure, shortened: as §1

glucosamine-6-phosphate [4] = variants of: B1; assay: self-cleavage kobs at 2500 uM GlcN6P; higher = faster cleavage; RNA array
Procedure, shortened: as §1

glucosamine-6-phosphate [5] = variants of: B1; assay: self-cleavage kobs at 10000 uM GlcN6P; higher = faster cleavage; RNA array
Procedure, shortened: as §1

Variant | self-cleavage kobs at 40 uM GlcN6P (glucosamine-6-phosphate [1]) | self-cleavage kobs at 640 uM GlcN6P (glucosamine-6-phosphate [2]) | self-cleavage kobs at 160 uM GlcN6P (glucosamine-6-phosphate [3]) | self-cleavage kobs at 2500 uM GlcN6P (glucosamine-6-phosphate [4]) | self-cleavage kobs at 10000 uM GlcN6P (glucosamine-6-phosphate [5])
C16G G51C | < 1e-05 s⁻¹ | – | – | – | –
A15G A52C U57G A64C C68A | < 1e-05 s⁻¹ | – | – | – | –
C16A U56G C68A | < 1e-05 s⁻¹ | – | – | – | –
C16U G66A | 0.000448 ± 9.7e-05 s⁻¹ | 0.00417 ± 0.00068 s⁻¹ | 0.00133 ± 0.00023 s⁻¹ | 0.00873 ± 0.0019 s⁻¹ | 0.0329 ± 0.014 s⁻¹
G29A U45A | 0.000219 ± 4.2e-05 s⁻¹ | 0.00159 ± 0.00032 s⁻¹ | 0.000411 ± 0.00014 s⁻¹ | 0.00447 ± 0.0012 s⁻¹ | 0.00857 ± 0.0012 s⁻¹
C16G A64C | < 1e-05 s⁻¹ | – | < 1e-05 s⁻¹ | – | –
A15G G37U | < 1e-05 s⁻¹ | – | – | – | –
C16G C34A C71A | < 1e-05 s⁻¹ | – | – | < 1e-05 s⁻¹ | –
G29C C50A | < 1e-05 s⁻¹ | – | – | – | –
A15U G41C | < 1e-05 s⁻¹ | – | – | – | –
A15G U46C C61A | < 1e-05 s⁻¹ | – | – | < 1e-05 s⁻¹ | < 1e-05 s⁻¹
A15G G29U | 6.06e-05 ± 1.7e-05 s⁻¹ | 0.000265 ± 0.0001 s⁻¹ | 0.000104 ± 4.4e-05 s⁻¹ | – | –
A15G G29C | 3.64e-05 ± 1.1e-05 s⁻¹ | 0.000327 ± 7.2e-05 s⁻¹ | 0.000187 ± 5.3e-05 s⁻¹ | 0.00156 ± 0.00032 s⁻¹ | 0.002 ± 0.00023 s⁻¹
C16A G26A C68G | 3.64e-05 ± 1.7e-05 s⁻¹ | – | – | – | 3.65e-05 ± 1.5e-05 s⁻¹
A15U G37U C67G | < 1e-05 s⁻¹ | – | < 1e-05 s⁻¹ | – | < 1e-05 s⁻¹
C19U | 0.00125 ± 0.00046 s⁻¹ | 0.00527 ± 0.0011 s⁻¹ | 0.00445 ± 0.0011 s⁻¹ | 0.0229 ± 0.0083 s⁻¹ | –
A15G A39C C61U G63C C68G | < 1e-05 s⁻¹ | < 1e-05 s⁻¹ | – | – | –
A15G G43U A48C | < 1e-05 s⁻¹ | – | – | < 1e-05 s⁻¹ | –
A15U C34A U49G U57G | < 1e-05 s⁻¹ | – | – | – | –
G29A G40U U47A U57G C70A | < 1e-05 s⁻¹ | – | – | – | < 1e-05 s⁻¹
C16G G35U A64U | < 1e-05 s⁻¹ | – | – | – | –
C16A A33C | < 1e-05 s⁻¹ | < 1e-05 s⁻¹ | < 1e-05 s⁻¹ | < 1e-05 s⁻¹ | –
G29U A33G G59A G63A | < 1e-05 s⁻¹ | – | – | – | < 1e-05 s⁻¹
C16G G38U G59C U65C | < 1e-05 s⁻¹ | – | – | – | –
C16U A53C | 0.000147 ± 2.2e-05 s⁻¹ | – | – | – | –
C16A C70U | 5.31e-05 ± 7.6e-06 s⁻¹ | 0.000192 ± 2.7e-05 s⁻¹ | 0.000117 ± 3.3e-05 s⁻¹ | 0.000365 ± 5.1e-05 s⁻¹ | 0.0015 ± 0.00026 s⁻¹
C16A C34A A36U G43U G51A A53C U56A G62A | < 1e-05 s⁻¹ | – | – | – | < 1e-05 s⁻¹

Variant | self-cleavage kobs at 40 uM GlcN6P (glucosamine-6-phosphate [1]) | self-cleavage kobs at 640 uM GlcN6P (glucosamine-6-phosphate [2]) | self-cleavage kobs at 160 uM GlcN6P (glucosamine-6-phosphate [3]) | self-cleavage kobs at 2500 uM GlcN6P (glucosamine-6-phosphate [4]) | self-cleavage kobs at 10000 uM GlcN6P (glucosamine-6-phosphate [5])
A15U C70U C71U | < 1e-05 s⁻¹ | – | – | – | –
C16U C34U A64U U65G C71U | < 1e-05 s⁻¹ | – | – | – | < 1e-05 s⁻¹
C16U G32C | < 1e-05 s⁻¹ | – | – | – | –
G29A G59U G63A A64U | < 1e-05 s⁻¹ | – | – | – | < 1e-05 s⁻¹
C16G A36C G66A | < 1e-05 s⁻¹ | – | – | – | –
G29C G63A | < 1e-05 s⁻¹ | – | < 1e-05 s⁻¹ | < 1e-05 s⁻¹ | < 1e-05 s⁻¹
C16U A42U G62A C67A | < 1e-05 s⁻¹ | – | – | – | < 1e-05 s⁻¹
C16A U49A | < 1e-05 s⁻¹ | – | – | – | < 1e-05 s⁻¹
C16A U49G | < 1e-05 s⁻¹ | < 1e-05 s⁻¹ | < 1e-05 s⁻¹ | – | –
A15G G35C C68A | < 1e-05 s⁻¹ | – | – | – | –
C16G C71U | 0.000132 ± 1.8e-05 s⁻¹ | 0.000865 ± 0.00012 s⁻¹ | 0.000323 ± 5.6e-05 s⁻¹ | – | –
C16A A53U C61U | < 1e-05 s⁻¹ | – | < 1e-05 s⁻¹ | – | –
C16U G44C | < 1e-05 s⁻¹ | – | – | – | –
C16A U31C A42G G44U C70G | < 1e-05 s⁻¹ | – | – | – | –
A15G U45G | 0.000211 ± 3.4e-05 s⁻¹ | 0.0024 ± 0.00037 s⁻¹ | 0.000643 ± 9.8e-05 s⁻¹ | 0.0044 ± 0.00084 s⁻¹ | 0.00741 ± 0.001 s⁻¹
G29C U49G | < 1e-05 s⁻¹ | – | – | – | –
C16G A42U U45G | < 1e-05 s⁻¹ | – | – | – | –
A15U U49A | < 1e-05 s⁻¹ | – | < 1e-05 s⁻¹ | < 1e-05 s⁻¹ | < 1e-05 s⁻¹
C16A G60A | < 1e-05 s⁻¹ | – | – | < 1e-05 s⁻¹ | < 1e-05 s⁻¹
C16A G60U | < 1e-05 s⁻¹ | < 1e-05 s⁻¹ | < 1e-05 s⁻¹ | < 1e-05 s⁻¹ | < 1e-05 s⁻¹
C16U G62A | < 1e-05 s⁻¹ | – | – | < 1e-05 s⁻¹ | < 1e-05 s⁻¹
G29C G43C | < 1e-05 s⁻¹ | < 1e-05 s⁻¹ | – | – | < 1e-05 s⁻¹
A15U U47C C61U | < 1e-05 s⁻¹ | – | – | – | < 1e-05 s⁻¹
G29A G43A A52G | < 1e-05 s⁻¹ | – | – | – | –
C16A G41C | < 1e-05 s⁻¹ | < 1e-05 s⁻¹ | < 1e-05 s⁻¹ | – | –
G29A G51C G60A | < 1e-05 s⁻¹ | – | < 1e-05 s⁻¹ | – | –
